Measurements from PubChem BioAssay AID686979 (National Center for Advancing Translational Sciences (NCATS), 2013).
The campaign covered roughly 420,000 compounds. About 50,000 (12%) were called active. Inconclusive means that the source gave no clear call. Such entries were picked first, then a sample of the others. Calls come from the whole dose curve; as a rule, active = well fitted inhibition curve with a large enough effect; inconclusive = small, poorly fitted or top-dose-only effect; inactive = flat fitted curve, though single readings scatter. Potencies of inconclusive entries are left out as doubtful fits.

Assay: qHTS for Inhibitors of human tyrosyl-DNA phosphodiesterase 1 (TDP1): qHTS in cells in presence of CPT; note: nearly all actives have a fitted effect of over 55% in size
Settings: chicken DT40 Tdp1-/-;hTDP1 cells + 20 nM CPT, ATP luminescence, 48 h; activity change, negative = growth inhibition: at 46.2 µM (top of the series)
Outline: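 Cell growth measured by CellTiter-Glo luminescence after a minimum 48 h, 37 C compound exposure with 20 nM CPT in Tdp1-knockout DT40 cells stably expressing hTDP1, seeded 400/well; qHTS titration format.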
% is set by controls: 0 for no effect and ±100 for the full control effect; potency is the fitted concentration of half-maximal effect; tags give direction and shape of the fitted curve.

Row | Structure (SMILES) | Potency | activity change, negative = growth inhibition
1 | COc1ccc2[nH]cc(CCNc3ncnc4ccc(-c5ccccc5C#N)cc34)c2c1 | inconclusive [inhibitor, single point] | –
2 | CC(=O)Nc1ccc(S(=O)(=O)N2CCN(S(=O)(=O)c3ccc(NC(C)=O)cc3)CC2)cc1 | inactive | –
3 | Cc1cccc(NC(=O)C(=O)NCC2CCCN2S(=O)(=O)c2cccs2)c1 (stereo not drawn) | active: 13 µM | –
4 | Cc1ccc(-n2nc(C)c3c(-c4cccs4)c(C#N)c(N)nc32)cc1 | inconclusive [inhibitor, single point] | –
5 | c1ccc(N2CCN(c3nc4cc5c(cc4s3)OCCO5)CC2)cc1 | inconclusive [inhibitor, single point] | –
6 | COc1ccc(CNCCC(c2ccc(OC(C)C)cc2)C(C)C)cc1OC (stereo not drawn) | inconclusive [inhibitor, single point] | –
7 | CCOCCCNC(=O)c1ccc2c(=O)n(CCc3ccc(OC)c(OC)c3)c(=O)[nH]c2c1 | active: 6.51 µM | –
8 | CCOc1nc(-c2ccccc2)c2cc(Br)ccc2n1 | – | inconclusive: -33.6% [inhibitor]
9 | CCOc1ccccc1CNC(=O)CSc1nnc(C)c2c(C)n(-c3ccccc3)nc12 | inconclusive [inhibitor, single point] | –
10 | COc1ccc(C(=O)C23CC4CC(C2)CC(C(=O)c2ccc(OC)cc2)(C4)C3)cc1 | inconclusive [inhibitor, single point] | –
11 | Cc1ccc(S(=O)(=O)c2c(N)n(CC3CCOC3)c3nc4ccccc4nc23)cc1 (stereo not drawn) | – | inconclusive: -36.4% [inhibitor]
12 | Cc1ncsc1CCOC(=O)C1C2CC3CC(C2)CC1C3 (stereo not drawn) | inconclusive [inhibitor, single point] | –
13 | CCc1ccc(NS(=O)(=O)c2cc(OC)ccc2OC)cc1 | inconclusive [inhibitor, single point] | –
14 | O=C(Nc1nc(N2C(=O)c3ccccc3C2=O)n(-c2ccccc2)n1)c1ccc(Cl)cc1 | inactive | –
15 | CN(CCCNC(=O)CCc1cn(C)c2ccccc12)C1CCCCC1 | – | inconclusive: -34.5% [inhibitor]
16 | O=C(/C=C/c1ccc(Cl)cc1Cl)NC(=S)Nc1ccc(CN2CCOCC2)cc1 | active: 16.4 µM | –
17 | Cc1ccc(NC(=O)Cn2c(=O)c3cccn3c3ccccc32)c(Cl)c1 | inconclusive [inhibitor, partial curve] | –
18 | CCc1ccc(S(=O)(=O)N(C(=O)c2ccncc2)c2ccc(OC(=O)c3ccncc3)cc2)cc1 | inconclusive [inhibitor, single point] | –
19 | N#CCC(=O)N/N=C\c1ccccc1OC/C=C/c1ccccc1 | active: 5.8 µM | –
20 | O=C(COC(=O)/C=C/c1ccc(S(=O)(=O)N2CCOCC2)cc1)NCc1ccc(Cl)cc1 | inconclusive [inhibitor, single point] | –
21 | Cc1cc(-c2cc(C)c(N)cc2C)c(C)cc1N | inconclusive [inhibitor, single point] | –
22 | CCCCOc1ccccc1C(=O)N(Cc1cccc(F)c1)C1CCS(=O)(=O)C1 (stereo not drawn) | inconclusive [inhibitor, single point] | –
23 | CC(OC(=O)CCc1nc2ccccc2[nH]c1=O)c1ccccc1 (stereo not drawn) | inactive | –

Row | Structure (SMILES) | Potency | activity change, negative = growth inhibition
24 | Cc1ccc(NC(=O)c2ccc(CNS(=O)(=O)c3ccc4c(c3)C(C)(C)C(=O)N4C)cc2)cc1F | active: 16.4 µM | –
25 | O=C(/C=C/c1ccc(Cl)cc1)NC(=S)Nc1ccc(NC(=O)c2ccco2)cc1 | inconclusive [inhibitor, single point] | –
26 | Cc1ccccc1-c1cc(C(=O)NCc2cccc(Br)c2)n(CC2CC(c3cccnc3)=NO2)n1 (stereo not drawn) | inconclusive [inhibitor, partial curve, poor fit] | –
27 | Cc1noc(C)c1C(=O)N1CCC[C@@]2(CCN(Cc3ccc(C#N)cc3)C2)C1 | inactive | –
28 | O=C(NCC(c1cccnc1)N1CCc2ccccc21)c1ccc(F)cc1 (stereo not drawn) | active: 23.1 µM | –
29 | COC(=O)Nc1ccc(S(=O)(=O)N2CCC(C(=O)N3CCCC(C)C3)CC2)cc1 (stereo not drawn) | inconclusive [inhibitor, single point] | –
30 | CC(=O)Nc1ccc2c(c1)CCCN2C(=O)c1ccccc1 | inactive | –
31 | Cc1ccc(NC2C(=O)NC(=O)NC2=O)cc1 | inactive | –
32 | S=c1[nH]nc(COc2ccccc2)n1Cc1ccccc1 | inconclusive [inhibitor, single point] | –
33 | Cn1c(=O)c(C(=O)CN2CCCCC2)c(N)n(Cc2ccccc2)c1=O | inactive | –
34 | CCOC(=O)C1=C(CN(C)Cc2ccccc2)NC(=O)NC1c1ccc(OC)cc1 (stereo not drawn) | inconclusive [inhibitor, single point] | –
35 | CNc1oc(-c2cccc3ccccc23)nc1C#N | inactive | –
36 | Cc1ccc(NS(=O)(=O)c2cccc(C(=O)NCC(c3cccs3)N(C)C)c2)cc1 (stereo not drawn) | active: 16.4 µM | –
37 | N#Cc1ccc(C23CC4(C2)[C@H](CN(Cc2ccc(C(F)(F)F)cc2)[C@@H]4c2ccccc2)C3c2ccc(C(F)(F)F)cc2)cc1 (stereo partly drawn) | inconclusive [inhibitor, single point] | –
38 | COc1ccc(NC(=S)N(CCC(C)C)C2CCN(C(C)C)CC2)cc1 | inconclusive [inhibitor, single point] | –
39 | O=C(N=C1SC2CS(=O)(=O)CC2N1Cc1ccccc1)C1CC1 (stereo not drawn) | inactive | –
40 | CCCCn1c(N)c(N(CCOC)C(=O)c2ccc(F)c(S(=O)(=O)N3CCOCC3)c2)c(=O)[nH]c1=O | inactive | –
41 | Cc1nn(-c2ccccc2)c(Cl)c1/C=N/Nc1nc2ccccc2n1C | active: 25.9 µM | –
42 | CCCCc1c(O)nc(SCC(=O)N2CCCCCC2)[nH]c1=O | inactive | –
43 | CCn1cnc2cc(NS(=O)(=O)c3ccc(C)cc3)ccc21 | inconclusive [inhibitor, partial curve] | –
44 | Cc1ccc(CNCC(O)(c2ccc(F)cc2)c2ccc(F)cc2)cc1 | active: 20.6 µM | –
45 | CC(C)Oc1ccc(C(=O)Nc2ccc(S(=O)(=O)N3CCN(C)CC3)cc2)cc1 | – | inconclusive: -31.6% [inhibitor]
46 | CCOc1ccccc1N1CCN(C(=S)NCc2ccc(Cl)cc2)CC1 | inconclusive [inhibitor, single point] | –

Row | Structure (SMILES) | Potency | activity change, negative = growth inhibition
47 | C=C[C@]1(C)C[C@@H](OC(=O)CO)[C@]2(C)[C@H](C)CC[C@]3(CCC(=O)[C@H]32)[C@@H](C)[C@@H]1O | inconclusive [inhibitor, single point] | –
48 | CCNC(=O)N1CCNC(=O)C1CC(=O)Nc1ccc(C(=O)OCC)cc1 (stereo not drawn) | inactive | –
49 | O=S(=O)(c1cccc(S(=O)(=O)N2CCC(n3nnc4ccccc43)CC2)c1)N1CCCCC1 | inconclusive [inhibitor, partial curve] | –
50 | COc1ccc(C(=O)CC(=O)C(=O)Nc2cc([N+](=O)[O-])ccc2OC)cc1 | inconclusive [inhibitor, single point] | –
51 | CCCC1C2C(=O)N(c3ccc(OC)cc3)C(=O)C2ON1c1ccccc1 (stereo not drawn) | inactive | –
52 | COc1ccc(OC(C)C(=O)NCc2nc(-c3cccc(C)c3)no2)cc1 (stereo not drawn) | inconclusive [inhibitor, single point] | –
53 | Cc1c(C(=O)N(Cc2ccco2)Cc2ccccc2Cl)oc2ccc(F)cc12 | inconclusive [inhibitor, single point] | –
54 | COc1cc(OC)c(NC(=O)C(Cc2ccccc2)NS(=O)(=O)c2cccc3nsnc23)cc1Cl (stereo not drawn) | inconclusive [inhibitor, single point] | –
55 | COc1ccc(-c2csc(C(C)(O)c3cccc(F)c3)n2)cc1OC (stereo not drawn) | active: 23.1 µM | –
56 | Cc1c(C(=O)N(C)C)c2ccc(Cl)cc2n1O | – | inconclusive: -37.7% [inhibitor]
57 | CC(=O)Nc1cc(-c2cccc(F)c2)cn2c(-c3ccc(S(C)(=O)=O)cc3)cnc12 | inconclusive [inhibitor, single point] | –
58 | COc1ccc(-c2cc(C(=O)Nc3c(C)nn(Cc4ccccc4Cl)c3C)no2)cc1OC | inconclusive [inhibitor, single point] | –
59 | COc1ccccc1-c1cccc(-c2nc(C(=O)N3CCCCC3)cc3c2[C@H](CCO)N(S(=O)C(C)(C)C)C3)c1 (stereo partly drawn) | active: 20.6 µM | –
60 | Cc1ccc(S(=O)(=O)N2CCN(c3nc(-c4cncn4C)nc4ccccc34)CC2)cc1 | active: 20 µM | –
61 | COCCn1c(SCC(=O)NC2CCCCC2C)nnc1-c1ccncc1 (stereo not drawn) | inactive | –
62 | O=C(Nc1ccc2nc(SCCOc3ccccc3Cl)sc2c1)c1ccc2c(c1)OCO2 | inconclusive [inhibitor, partial curve, poor fit] | –
63 | COc1ccc(/C=C/C(=O)c2cc3c(cc2N)OCO3)cc1 | inconclusive [inhibitor, single point] | –
64 | C#CCN(C[C@H]1[C@H](OC(=O)NCCCCCC)[C@H](OC(=O)NCCCCCC)C[C@H]2C(=O)N(c3ccccc3)C(=O)[C@@H]12)S(=O)(=O)c1ccc(C)cc1 | inconclusive [inhibitor, single point] | –
65 | COc1ccc(CC(=O)Nc2cc(-c3cn4cccnc4n3)ccc2OC)cc1 | inconclusive [inhibitor, single point] | –
66 | CCS(=O)(=O)c1ccccc1C(=O)Nc1ccc(-c2nc3ccccc3s2)cc1 | inconclusive [inhibitor, single point] | –
67 | CN(C)C(CNC(=O)CNC(=O)c1ccc(Br)cc1)c1ccccc1 (stereo not drawn) | inactive | –
68 | CCCCCC(=O)Nc1cc(S(=O)(=O)N2CCOCC2)ccc1N1CCCCC1 | inconclusive [inhibitor, single point] | –
